Some of the results follow. Viral Rep nickase domains cut single-stranded DNA in vitro (3 µM enzyme, 1 h, 37 °C); shown is the middle of each 90-letter strand. Numbers give uncut DNA relative to the enzyme-free pool, as log2; the lower, the more was cut; hits are not called. The scaling is to total reads; where an enzyme cuts many sequences, the uncut ones exceed 0.
Legend:
Assay in all cases: uncleaved DNA left, log2 of reads against the no-enzyme library (log2 ratio); higher = less cleavage (more negative = more Rep cleavage of the k-mer); sequences stand for … in CTCGTCCG…ACCGGAGA
[1] = tested on: T1, Rep nickase domain of Muscovy duck circovirus
T1 sequence (residues 1-111 of Rep, tag left off): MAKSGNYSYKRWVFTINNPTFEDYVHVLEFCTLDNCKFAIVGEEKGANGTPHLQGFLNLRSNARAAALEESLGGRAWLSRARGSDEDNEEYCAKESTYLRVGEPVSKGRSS
Description: (§1)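 A pool of 90-nt single-stranded DNAs with seven random bases just before the constant AC of the nick site (name = the seven bases) was cut by 3 µM recombinant His6-SUMO-tagged Rep nickase domain (300 nM DNA, 50 mM HEPES pH 8.0, 50 mM NaCl, 1 mM MnCl2, 1 h, 37 °C, three replicates). Uncut DNA was amplified and sequenced.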

[2] = tested on: T2, Rep nickase domain of banana bunchy top virus
T2 sequence (residues 1-94 of Rep, tag left off): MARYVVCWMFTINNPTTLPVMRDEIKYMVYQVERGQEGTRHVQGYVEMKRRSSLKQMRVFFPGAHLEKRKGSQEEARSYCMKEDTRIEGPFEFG
Description: as §1

[3] = tested on: T3, Rep nickase domain of cabbage leaf curl virus
T3 sequence (residues 1-116 of Rep, tag left off): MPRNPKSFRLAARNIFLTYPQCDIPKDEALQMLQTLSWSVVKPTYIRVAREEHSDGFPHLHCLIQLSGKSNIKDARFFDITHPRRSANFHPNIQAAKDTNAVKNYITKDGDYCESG
Description: as §1

[4] = tested on: T4, Rep nickase domain of chickpea chlorotic dwarf virus
T4 sequence (residues 1-124 of Rep, tag left off): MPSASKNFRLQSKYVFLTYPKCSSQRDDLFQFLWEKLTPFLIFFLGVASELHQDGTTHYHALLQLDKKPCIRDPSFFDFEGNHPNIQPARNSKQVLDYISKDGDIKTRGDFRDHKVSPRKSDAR
Description: as §1

[5] = tested on: T5, Rep nickase domain of faba bean necrotic yellows virus
T5 sequence (residues 1-98 of Rep, tag left off): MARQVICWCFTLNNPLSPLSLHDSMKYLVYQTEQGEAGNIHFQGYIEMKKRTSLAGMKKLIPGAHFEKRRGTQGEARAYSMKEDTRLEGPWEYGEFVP
Description: as §1

[6] = tested on: T6, Rep nickase domain of maize striate mosaic virus
T6 sequence (residues 1-117 of Rep, tag left off): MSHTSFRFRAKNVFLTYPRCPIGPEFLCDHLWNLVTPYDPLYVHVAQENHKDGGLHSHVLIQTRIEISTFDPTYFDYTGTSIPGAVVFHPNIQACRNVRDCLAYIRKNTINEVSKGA
Description: as §1

[7] = tested on: T7, Rep nickase domain of porcine circovirus 2
T7 sequence (residues 2-116 of Rep, tag left off): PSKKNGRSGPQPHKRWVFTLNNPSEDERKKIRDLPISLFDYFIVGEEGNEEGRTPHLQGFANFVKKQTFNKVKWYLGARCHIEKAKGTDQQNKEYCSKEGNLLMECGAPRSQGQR
Description: as §1

[8] = tested on: T8, Rep nickase domain of tomato golden mosaic virus
T8 sequence (residues 1-124 of Rep, tag left off): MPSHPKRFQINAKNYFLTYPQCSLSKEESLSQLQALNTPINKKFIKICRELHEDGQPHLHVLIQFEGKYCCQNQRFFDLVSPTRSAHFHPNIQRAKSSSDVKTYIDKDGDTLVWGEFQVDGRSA
Description: as §1

[9] = tested on: T9, Rep nickase domain of tomato yellow leaf curl virus
T9 sequence (residues 1-136 of Rep, tag left off): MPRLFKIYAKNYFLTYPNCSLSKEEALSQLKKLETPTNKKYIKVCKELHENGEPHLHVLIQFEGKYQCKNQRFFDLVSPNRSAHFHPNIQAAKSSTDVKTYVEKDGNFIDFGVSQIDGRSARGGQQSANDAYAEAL
Description: as §1

[10] = tested on: T10, Rep nickase domain of wheat dwarf virus
T10 sequence (residues 1-137 of Rep, tag left off): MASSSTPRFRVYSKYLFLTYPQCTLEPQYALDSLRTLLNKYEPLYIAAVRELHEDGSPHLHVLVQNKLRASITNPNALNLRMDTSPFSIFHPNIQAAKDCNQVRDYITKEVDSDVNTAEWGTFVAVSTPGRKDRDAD
Description: as §1

Sequence	uncleaved DNA left (log2) [1]	uncleaved DNA left (log2) [2]	uncleaved DNA left (log2) [3]	uncleaved DNA left (log2) [4]	uncleaved DNA left (log2) [5]	uncleaved DNA left (log2) [6]	uncleaved DNA left (log2) [7]	uncleaved DNA left (log2) [8]	uncleaved DNA left (log2) [9]	uncleaved DNA left (log2) [10]
CTGAGGA	-0.0605	0.0328	0.105	0.427	0.166	-0.383	0.199	-0.0272	0.0161	0.0373
AGTTGTG	0.0466	0.0134	-0.652	0.264	0.0294	-0.766	0.08	0.0162	0.164	-0.00962
CGGTAGA	-0.0904	-0.00785	-0.0519	0.222	-0.0345	-0.385	-0.0633	-0.0198	-0.0478	-0.0912
AGGTGGT	-0.0276	-0.0112	0.202	1.27	-0.113	1.7	-0.656	0.0601	-0.122	-0.0156
AGCCGGC	-0.182	-0.137	-0.136	0.127	-0.0501	-0.22	-0.0619	0.0493	-0.115	-0.0458
TTTAACA	-0.0197	0.0946	-0.246	-2.01	0.081	-0.00438	-0.0945	0.112	0.11	0.0292
ACGTCAA	-0.0473	0.0453	-0.0406	-0.0864	0.0711	-0.523	-0.0912	0.00476	-0.157	-0.0262
TATAGTC	0.0205	-0.0562	0.0292	-0.563	-0.172	-0.929	0.0274	-0.101	-0.124	0.00589
GAGCTAG	-0.156	-0.157	-0.291	0.0262	-0.15	-0.583	-0.0795	-0.0166	-0.138	-0.122
TAAAGGC	0.046	-0.0206	-0.0615	-0.141	-0.0403	-0.615	0.114	0.0209	0.0242	0.000267
TGGTGGT	-0.229	-0.0639	0.0774	0.461	-0.279	1.04	-1.84	-0.0838	-0.0631	-0.106
ATCGCGG	-0.111	-0.148	-0.149	0.189	-0.0459	-0.18	0.0421	-0.0781	-0.149	-0.101
CGTTGTA	-0.107	-0.0913	-0.148	-0.424	0.0348	-0.769	-0.158	0.0428	0.152	-0.0258
AGGAACC	0.051	-0.00667	0.115	0.472	-0.0852	0.455	-0.438	-0.109	0.0433	0.0763
TGCATGA	0.0563	0.0137	-0.0103	0.0605	-0.0166	-0.609	-0.0544	0.00487	-0.0214	-0.101
TCACACG	0.0645	-0.112	-0.822	-0.784	0.0104	-1.27	0.185	-0.0964	0.0403	-0.151
ATGAGCA	-0.0322	-0.0217	-0.376	-0.909	0.0121	-0.974	-2.08	-0.0189	-0.0492	-0.0163
CTCCGCA	-0.0117	0.087	-0.0485	-0.181	0.0312	-0.61	0.136	0.0087	0.0948	0.112
GAGGTAA	0.101	0.15	0.402	1.04	0.0193	1.68	0.0602	0.0176	0.0395	0.127
AAGGTGA	0.0835	0.081	0.224	0.807	0.0756	0.77	0.246	0.179	0.0495	0.0396

Sequence	uncleaved DNA left (log2) [1]	uncleaved DNA left (log2) [2]	uncleaved DNA left (log2) [3]	uncleaved DNA left (log2) [4]	uncleaved DNA left (log2) [5]	uncleaved DNA left (log2) [6]	uncleaved DNA left (log2) [7]	uncleaved DNA left (log2) [8]	uncleaved DNA left (log2) [9]	uncleaved DNA left (log2) [10]
TAACCAT	-0.205	-0.0186	-2.82	-3.16	-0.0196	-0.815	-0.696	-0.197	0.0407	-0.569
GATGCCC	-0.142	-0.0705	0.0202	0.342	-0.0939	0.167	-0.0721	-0.111	0.0465	-0.102
AGCGTGG	-0.058	-0.000825	-0.0859	0.442	-0.0938	1.04	-0.00491	-0.0787	-0.123	-0.09
ATCGCTG	0.0172	0.116	0.207	0.867	-0.0557	1.31	0.0605	0.0622	-0.12	0.0363
ATCGAGG	0.0754	0.0257	0.298	1.13	0.102	0.911	0.125	0.133	-0.111	0.0378
CGCGCAT	-0.111	-0.0848	-0.248	-0.048	-0.101	-0.174	-0.0666	-0.289	-0.214	-0.0422
AACTTGC	-0.0671	-0.0669	-0.863	-0.336	-0.0447	-1.1	-0.000745	-0.182	0.0319	-0.104
AAGCAAC	0.143	0.0631	0.0796	-0.751	0.117	-0.197	0.066	0.132	0.0827	0.102
TGCCTAG	-0.00163	-0.0583	-0.781	-0.643	0.0499	-0.999	0.0476	0.112	-0.0488	-0.166
GTTCGAA	0.00631	0.0336	0.16	0.786	-0.0578	1.56	0.00404	0.0736	0.0304	-0.0177
AGAGTCT	-0.0103	-0.0786	0.194	-0.281	-0.00458	0.783	-0.0879	0.00248	-0.0589	-0.0145
CCTATGG	-0.0474	-0.0546	-0.0988	0.0896	-0.0854	-0.656	0.0279	0.0595	-0.0313	0.0138
ATAACGT	-0.117	-0.0511	-0.521	-0.88	-0.0791	-0.777	-0.0477	-0.0793	-0.0403	-0.158
AATAACT	-0.224	-0.476	-1.15	-3.12	-0.0387	-1.27	-3.41	-0.0603	-0.0636	-0.222
CTGCTGA	0.123	0.191	0.131	0.674	0.0314	0.438	0.185	0.11	-0.0276	0.0798
GTTCAGA	0.0211	0.0894	0.35	0.906	-0.08	1.74	0.212	0.139	0.0253	0.172
GTTTCAG	-0.0323	0.059	0.000434	0.245	0.0384	-0.0875	0.15	0.0689	0.0955	-0.0407
AACTCGT	-0.158	-0.229	-0.408	-1.64	-0.0471	-1.01	-3.27	0.0165	0.0478	-0.0723
CATCGGC	-0.0364	-0.0485	-0.302	-0.364	-0.104	-1.18	0.0179	-0.115	-0.0601	-0.106
TGATTGG	0.0985	-0.00959	-0.39	-0.477	0.0287	-1.13	0.117	-0.0597	0.0153	-0.0505

Sequence	uncleaved DNA left (log2) [1]	uncleaved DNA left (log2) [2]	uncleaved DNA left (log2) [3]	uncleaved DNA left (log2) [4]	uncleaved DNA left (log2) [5]	uncleaved DNA left (log2) [6]	uncleaved DNA left (log2) [7]	uncleaved DNA left (log2) [8]	uncleaved DNA left (log2) [9]	uncleaved DNA left (log2) [10]
GCTCCAC	-0.0475	0.0976	0.096	0.384	0.0634	0.253	-0.00611	-0.0124	0.00745	0.0766
AATTCCG	-0.0283	-0.0057	-0.732	0.154	-0.0273	-0.943	0.0247	-0.165	-0.00472	-0.0948
ATAGATA	-0.0306	-0.019	-0.0621	-0.867	-0.029	0.0641	0.0123	0.0837	-0.222	-0.0721
GGGAATG	0.0374	0.155	0.713	1.88	-0.0415	2.15	0.22	0.0356	0.0606	0.205
TGTTACT	-3.7	-0.688	-2.46	-2.8	-0.496	-0.0207	-3.88	-1.99	-0.0799	-2.28
CATCCCC	0.00823	-0.0472	-0.031	-0.371	-0.0498	-0.229	-0.322	-0.247	-0.21	-0.0326
CTATAGC	-0.0165	0.0476	-0.453	-0.641	0.0778	-1.07	0.192	-0.0569	-0.053	-0.0699
ACGTGTG	0.00517	-0.0207	-0.842	-0.104	0.0959	-0.864	0.0975	0.0216	0.0604	-0.0782
CTGTATG	-0.204	-0.23	-0.704	-0.598	0.037	-1.31	-0.00939	-0.207	-0.0992	-0.137
CTTCCCT	-0.226	-0.236	-0.207	-2.13	-0.286	-0.628	-2.33	-0.287	-0.108	-0.232
TCTGTGC	0.00111	0.0685	-0.478	-0.561	0.0296	-1.1	0.0856	-0.0866	-0.0442	-0.221
CTCATTT	-0.035	-0.134	-0.358	-2.51	-0.0897	-1.09	-0.299	-0.0505	-0.16	-0.15
TACACGT	-0.0314	-0.191	-0.39	-1.84	-0.11	-0.829	-0.168	-0.119	-0.171	-0.127
GGCGTTT	-0.0941	-0.108	0.247	0.447	-0.118	1.16	-0.139	-0.0521	-0.136	-0.0316
ATTATCC	-0.102	0.0394	0.0253	-0.00189	0.0259	-0.431	0.0152	0.0139	0.0387	0.112
CCACCGA	0.00202	-0.0948	-0.458	-0.62	0.0123	-0.878	0.0914	-0.115	-0.176	-0.157
CTTGTTC	-0.131	-0.0516	0.017	-1.13	-0.164	-0.911	-0.203	-0.0885	-0.0759	0.00922
GCTAGTA	-0.0155	0.0494	0.0381	0.129	0.01	0.176	-0.0103	0.149	-0.00225	0.00827
AATTGCT	-3.26	-1.55	-0.852	-1.19	0.0862	-0.691	-3.58	-0.0545	0.13	-0.0615
GTTGCTT	-0.12	-0.105	0.0444	0.332	-0.0453	0.496	-0.0487	-0.0365	-0.0738	-0.156

Reference: the supplement of paper PMC7826260
